Values marked as one replicate rest on one cluster of the flow cell; about a third of the high ones do not repeat.
Test system: ATP
Test: switch fluorescence ratio, 500 uM ATP over buffer (Cy3 cluster intensity, sum of 5 cycles each) (fold (ratio)); higher = stronger signal-on switching upon ATP binding; sequences stand for … in TCGTCGGCAGCGTCAGATGTGTATAAGAGACAGTTTTTTTTTTTTTTTTTTTTTTTTT…TC
Conditions: aptamer strand: ATP DNA aptamer (quencher-CACCTGGGGGAGTATTGCGGAGGAAGG + anchor), 100 nM annealed; ATP concentration: 500 uM; one replicate
How it was run: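 The quencher-labelled ATP aptamer, at 100 nM, was annealed to Cy3-labelled switching-strand clusters on a modified Illumina MiSeq flow-cell. The clusters were imaged in selection buffer, then after 15 min with 500 uM ATP at 22 °C, and this buffer/ATP cycle ran five times with NaOH stripping and re-annealing between runs. Per-cluster fluorescence ratios, summed target-cycle over summed buffer-cycle Cy3 intensity, were averaged per switch-domain sequence. Clusters outside 100-1000 RFU were excluded.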
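Also: ATP exposure 15 min at 22 °C before imaging.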

TATTCCTACT
switch fluorescence ratio: 1.07

TGCACTAGCT
switch fluorescence ratio: 0.932

CCAGGGTGGC
switch fluorescence ratio: 1.28

TGGATACATC
switch fluorescence ratio: 0.963

TAGCGACATG
switch fluorescence ratio: 0.98

TCATTGCCCT
switch fluorescence ratio: 0.995

ATTTCTGAGA
switch fluorescence ratio: 1.05

TCAAATTCG
switch fluorescence ratio: 0.995

GCAGAGCTTT
switch fluorescence ratio: 1

CGCCTTAAAA
switch fluorescence ratio: 0.989

TTAAGCTCTG
switch fluorescence ratio: 1.01

TTTTATGCTC
switch fluorescence ratio: 1.01

GAGTCCTACC
switch fluorescence ratio: 0.965

AGTAACCCGA
switch fluorescence ratio: 1.07

AAGAGCGCTA
switch fluorescence ratio: 1.02

TAATGGTGTT
switch fluorescence ratio: 1.02

TCTTTAGTTA
switch fluorescence ratio: 1.24

TTCCGGGAAT
switch fluorescence ratio: 1

TTAATGGCGC
switch fluorescence ratio: 0.976

GGGTATTGGC
switch fluorescence ratio: 0.99

GGTACTGCGT
switch fluorescence ratio: 1.07

ACGTTGTCT
switch fluorescence ratio: 0.989

AAAAGTGATA
switch fluorescence ratio: 1

CCAATAGCC
switch fluorescence ratio: 1.13

GGACATGCGC
switch fluorescence ratio: 0.996

CCTCATTCAC
switch fluorescence ratio: 1.76

AGGTAAGCAA
switch fluorescence ratio: 1.58

TATTACAGCT
switch fluorescence ratio: 1.02

GTGCTTTTTC
switch fluorescence ratio: 0.988

TCCGGTGCCA
switch fluorescence ratio: 0.965

CCAGCACTTA
switch fluorescence ratio: 1.08

TCCTGGGTGG
switch fluorescence ratio: 1.08

GGTCGTATTT
switch fluorescence ratio: 0.977

TGAGTTAGGT
switch fluorescence ratio: 1.02

GTATTGTGCC
switch fluorescence ratio: 0.991

AGTCCAGGGT
switch fluorescence ratio: 1.14

TCCATGCTGT
switch fluorescence ratio: 1

GGGCAATCTC
switch fluorescence ratio: 3.81

CTGTTTGACT
switch fluorescence ratio: 0.988

TAGTGGAGT
switch fluorescence ratio: 0.96

GGGAATAGTC
switch fluorescence ratio: 1.02

TGGCCTTTGT
switch fluorescence ratio: 1

AATAGAGAGC
switch fluorescence ratio: 0.91

CCTTTTGTAG
switch fluorescence ratio: 1.05

TCGTAATTTA
switch fluorescence ratio: 1

TGCCGGTCGT
switch fluorescence ratio: 1.03

TATCTATAGG
switch fluorescence ratio: 1

CGGGGTTAAT
switch fluorescence ratio: 1.02

GTCGGAATAT
switch fluorescence ratio: 1.02

ATGCGCCTTA
switch fluorescence ratio: 1.01

GCAAGAATTA
switch fluorescence ratio: 1.01

GGAAGGATTT
switch fluorescence ratio: 1.13

CGATTTGCTC
switch fluorescence ratio: 0.994

CATTCACCAG
switch fluorescence ratio: 1.11

TTGCCTGC
switch fluorescence ratio: 1.05

ATTTACGGCT
switch fluorescence ratio: 0.95

GGGTCCCCCA
switch fluorescence ratio: 0.974

GTATGCGT
switch fluorescence ratio: 0.973

ACCACTCT
switch fluorescence ratio: 1.01

TACCAAGCTG
switch fluorescence ratio: 1.13

GTTCTACACC
switch fluorescence ratio: 1.06

CAAGCGGGAG
switch fluorescence ratio: 0.997

CGGGGAG
switch fluorescence ratio: 1

GAGGTGAGGT
switch fluorescence ratio: 0.978

GTGCAGAGGG
switch fluorescence ratio: 0.981

CTACTGTTAT
switch fluorescence ratio: 1.05

AAGTTGCTAC
switch fluorescence ratio: 1.03

AGTATGGTCG
switch fluorescence ratio: 0.925

AATCTTTTCC
switch fluorescence ratio: 1.06

GACTGAGTGG
switch fluorescence ratio: 0.976

TTTCCTCAGC
switch fluorescence ratio: 1.86

GTCGTTTAAT
switch fluorescence ratio: 0.97

TCATGCCTCA
switch fluorescence ratio: 1.01

GGGTCGTGCC
switch fluorescence ratio: 0.954

TATGTTACCG
switch fluorescence ratio: 1.08

CTTGGGAGTC
switch fluorescence ratio: 0.991

TCGCAGAAGA
switch fluorescence ratio: 1

TCGGGCTCAA
switch fluorescence ratio: 1.02

CCTTTGGCAA
switch fluorescence ratio: 4.82

ATTGGGGAAA
switch fluorescence ratio: 0.994

CCAGAGAGC
switch fluorescence ratio: 0.975

GCAAGTACGC
switch fluorescence ratio: 1.58

GGTGCCTCAT
switch fluorescence ratio: 1

CACTCAGAGC
switch fluorescence ratio: 0.964

CTTGACACCT
switch fluorescence ratio: 1.25

CAGCCTAACT
switch fluorescence ratio: 1.02

GGCGTTTCCT
switch fluorescence ratio: 0.995

CAAATAGCT
switch fluorescence ratio: 0.972

GGTCGGGCTC
switch fluorescence ratio: 0.928

CTACTTAGCA
switch fluorescence ratio: 1.09

TTACTTACAC
switch fluorescence ratio: 1.33

GCGAAACTGG
switch fluorescence ratio: 0.98

TCGATAGGCT
switch fluorescence ratio: 0.959

CGCGAGGGAG
switch fluorescence ratio: 1.02

AAACGCCTCT
switch fluorescence ratio: 1.02

CCGCGTCTTC
switch fluorescence ratio: 1.15

TAAGGCCTAA
switch fluorescence ratio: 0.982

AAATCCGCCA
switch fluorescence ratio: 1.99

TTCCTTTGCT
switch fluorescence ratio: 1.32

TGTAGCCTAC
switch fluorescence ratio: 1.14

CGGTGGAGGA
switch fluorescence ratio: 1

TTGCCACCGT
switch fluorescence ratio: 0.974

GCAAACTAAG
switch fluorescence ratio: 1.05

AGTTTTCTTG
switch fluorescence ratio: 1.01

TGATTACTCT
switch fluorescence ratio: 1.01

TCAATTGAAG
switch fluorescence ratio: 1.05

CGGATTCCG
switch fluorescence ratio: 0.989

GTCACAAGCT
switch fluorescence ratio: 0.932

TTTTACAACG
switch fluorescence ratio: 1.05

TGGATTGTTA
switch fluorescence ratio: 1.33

TTACGAGTGC
switch fluorescence ratio: 1.01

ATGGAGCAGG
switch fluorescence ratio: 1.07

CTGTTGGGCG
switch fluorescence ratio: 0.954

ACGTAGGTAT
switch fluorescence ratio: 1.1

ACAATCCCTA
switch fluorescence ratio: 0.976

GAGGGATAAT
switch fluorescence ratio: 0.964

GACAAAAATG
switch fluorescence ratio: 1.02

CCGGGGGAGT
switch fluorescence ratio: 1.01

TTTGAAACAG
switch fluorescence ratio: 0.99

CTTGTTTCTG
switch fluorescence ratio: 0.96

TTCATGTCAG
switch fluorescence ratio: 1.05

TGTTGAGTAC
switch fluorescence ratio: 1.04

TTGATGTG
switch fluorescence ratio: 0.97

TGTTTGTGAC
switch fluorescence ratio: 0.968

TGAAGTGATG
switch fluorescence ratio: 1.04

CAGCTCCTTC
switch fluorescence ratio: 1.03

TTATCGGGCG
switch fluorescence ratio: 0.995

CGCCCTGTCT
switch fluorescence ratio: 1.02

ACTATGAAAG
switch fluorescence ratio: 0.961

TTAGCTGCCT
switch fluorescence ratio: 1.04

AATTCGGTTA
switch fluorescence ratio: 1.02

CAGGCGGATC
switch fluorescence ratio: 0.973

CACGGTTGGT
switch fluorescence ratio: 0.995

CAGTAATGGC
switch fluorescence ratio: 1.06

ACGGTTTCAA
switch fluorescence ratio: 1.03

GCATGGGGGT
switch fluorescence ratio: 1.02

GGGATGCTTG
switch fluorescence ratio: 1.12

ACGAGGTGAG
switch fluorescence ratio: 0.997

TAGGACCAAA
switch fluorescence ratio: 1.14

GGTGTGGACG
switch fluorescence ratio: 0.907

ACACTAAGC
switch fluorescence ratio: 1.02

GCTTAATGGC
switch fluorescence ratio: 0.987

CACGGTCTTA
switch fluorescence ratio: 1.05

CCCTTTTAGT
switch fluorescence ratio: 1.02

TACGCAAAGC
switch fluorescence ratio: 2.25

TGATTTGCGC
switch fluorescence ratio: 0.943

TGTGTAGGAG
switch fluorescence ratio: 0.98

GTGTAAAAGG
switch fluorescence ratio: 1.18

AGCGAAGTTG
switch fluorescence ratio: 0.982

CAAGTTTTCA
switch fluorescence ratio: 1.02

CACGTTTTCC
switch fluorescence ratio: 1.17

GGATTCCAGC
switch fluorescence ratio: 0.975

TCAGGCTTAC
switch fluorescence ratio: 1.3

AACTGTAATC
switch fluorescence ratio: 1.12

AGCAGCAGAG
switch fluorescence ratio: 1

GAGAGTGAGG
switch fluorescence ratio: 0.97

CCTACAAACA
switch fluorescence ratio: 1.26

AGTGTAGGAG
switch fluorescence ratio: 1.02

CGACTTGCGC
switch fluorescence ratio: 1.09

TAAAGATTGT
switch fluorescence ratio: 1.24

ATTGCGAAAG
switch fluorescence ratio: 0.998

TTTTGTAACC
switch fluorescence ratio: 1.01

TCAAAGTACG
switch fluorescence ratio: 1.1

TACTCACACT
switch fluorescence ratio: 1.4

GTTGAAAAAC
switch fluorescence ratio: 1.02

AGCAGGAGGC
switch fluorescence ratio: 1.05

TACTAAGCAG
switch fluorescence ratio: 1.07

TGTGTGGAAG
switch fluorescence ratio: 0.999

AAGATGGCTC
switch fluorescence ratio: 1.05

TGTGGGCGG
switch fluorescence ratio: 0.997

TTGAAATCCG
switch fluorescence ratio: 0.997

TGGTCGTGGT
switch fluorescence ratio: 0.993

AGTGGAATAC
switch fluorescence ratio: 2.55

GGGTATTCGG
switch fluorescence ratio: 0.995

TTGCTGTAGT
switch fluorescence ratio: 0.97

AAGAGTACTC
switch fluorescence ratio: 1.04

ACAATAAAGA
switch fluorescence ratio: 0.978

GGTTGTCTGT
switch fluorescence ratio: 1

CTATTGGCGC
switch fluorescence ratio: 0.981

TGAGGAGTTC
switch fluorescence ratio: 0.994

GGCTGAAAGA
switch fluorescence ratio: 1.04

GAGCTTTCAC
switch fluorescence ratio: 1.02

CAGAGGACGT
switch fluorescence ratio: 0.966

CGTAGATGCA
switch fluorescence ratio: 0.974

ACTATTTAAG
switch fluorescence ratio: 0.954

GGTGACGCAT
switch fluorescence ratio: 1.19

AAGCGCTAAT
switch fluorescence ratio: 1.03

TTATGGCGAG
switch fluorescence ratio: 0.99

CGATAGCTAA
switch fluorescence ratio: 1.09

CATCGACTTT
switch fluorescence ratio: 1.01

TTACTGTAA
switch fluorescence ratio: 1.11

GCAGGTTTGT
switch fluorescence ratio: 1

AATAGATCGC
switch fluorescence ratio: 1.05

GTTAATTTCC
switch fluorescence ratio: 1.01

CTTTGAATCT
switch fluorescence ratio: 1.02

GCATATACCA
switch fluorescence ratio: 1.2

GTGAGGCACA
switch fluorescence ratio: 1.01

TATTGTACGA
switch fluorescence ratio: 0.957

GACGTTAGTA
switch fluorescence ratio: 1.03

TGAAAAGTCC
switch fluorescence ratio: 1.02

CGTTTTATT
switch fluorescence ratio: 1.02

From the supplement of paper PMC10126150
